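Where inhibition never reached the appropriate level, the endpoint shown equals the highest concentration tested. Otherwise, values were interpolated linearly from a five-concentration, 48-hour dose response in 96-well plates. At the GI50, growth is halved. TGI: total growth inhibition.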
tested on: NCI-H322M lung; experiment: NCI anticancer screen, dose series, 48 h

SMILES | GI50 [µM] | TGI [µM]
COc1cccc(COc2ccc(/C=C3\Oc4cc(O)ccc4C3=O)cc2)c1 | > 100 | > 100
COc1nc(N)ncc1-c1ccc2ncnc(N3CCc4cc(F)c(Cl)cc43)c2c1 | 1.31 | 7.79
CC/C(=C(\c1ccc(O)cc1)c1ccc(OCCN(C)C(=O)COCCNC(=O)Cc2ccc3c(c2)CN([C@@H]2CCC(=O)NC2=O)C3=O)cc1)c1ccccc1 | 1.8 | > 51.3
O=c1cc(-c2ccccc2)oc2cc(OCCCNCc3ccccc3)cc(O)c12 | 6.93 | 21.8
Cc1ccc2nc(COc3ccc(C(=O)NNC(=O)Nc4ccc(Cl)c(C(F)(F)F)c4)cc3)[nH]c2c1 | 4.21 | 68.2
C/C(=N\N=C\c1ccc(Cl)c([N+](=O)[O-])c1)c1ccc2c(c1)Nc1ccccc1S2 | 16.7 | > 100

From PubChem BioAssay (NCI)
